This is one part of the list.
B1: PhoQ; a variant is named by its letters at X, in order, P23837 (parent)
chain: MKKLLRLFFPLSLRVRFLLATAAVVLVLSLAYGMVALIGYSVSFDKTTFRLLRGESNLFYTLAKWENNKLHVELPENIDKQSPTMTLIYDENGQLLWAQRDVPWLMKMIQPDWLKSNGFHEIEADVNDTSLLLSGDHSIQQQLQEVREDDDDAEMTHSVAVNVYPATSRMPKLTIVVVDTIPVELKSSYMVWSWFIYVLSANLLLVIPLLWVAAWWSLRPIEALAKEVRELEEHNRELLNPATTRELTSLVRNLNRLLKSERERYDKYRTTLTDLTHSLKTPLXXLQXXLRSLRSEKMSVSDAEPVMLEQISRISQQIGYYLHRASMRGGTLLSRELHPVAPLLDNLTSALNKVYQRKGVNISLDISPEISFVGEQNDFVEVMGNVLDNACKYCLEFVEISARQTDEHLYIVVEDDGPGIPLSKREVIFDRGQRVDTLRPGQGVGLAVAREITEQYEGKIVAGESMLGGARMEVIFGRQHSAPKDE

Variants of: B1
Test: enrichment ratio after two sorts for PhoP signalling (ratio (wild type AVST 3.29)); higher = more functional
Details: with PhoP (E. coli)

Variant | enrichment ratio
GSEP | ≤ 0.25
VGMR | ≤ 0.25
VMYR | ≤ 0.25
SKVH | 3.04
ATTT | 5.96
QLQR | ≤ 0.25
YCHW | ≤ 0.25
AMVY | 5.71
ETCG | ≤ 0.25
KGTI | ≤ 0.25
GCWK | ≤ 0.25
RIHC | ≤ 0.25
LWWF | ≤ 0.25
TLHC | ≤ 0.25
YKGA | ≤ 0.25
RSID | ≤ 0.25
QKLL | 5.58
EYAR | ≤ 0.25
WMDF | ≤ 0.25
HHFW | ≤ 0.25
NCDE | ≤ 0.25
VFMT | ≤ 0.25
LPLM | ≤ 0.25
VMVH | ≤ 0.25

Variant | enrichment ratio
RTMF | ≤ 0.25
FQNR | ≤ 0.25
NWWP | ≤ 0.25
EDRA | ≤ 0.25
TYSD | ≤ 0.25
TANR | ≤ 0.25
RSRF | ≤ 0.25
WRML | ≤ 0.25
QDHR | ≤ 0.25
ILFF | 0.321
DHPQ | ≤ 0.25
QFKG | ≤ 0.25
EASS | ≤ 0.25
WSMY | ≤ 0.25
LTNT | ≤ 0.25
ASLG | 18.2
DLED | ≤ 0.25
WELL | ≤ 0.25
HTMK | ≤ 0.25
NGNI | ≤ 0.25
MKLI | 3.78
RDFR | ≤ 0.25
GFTW | ≤ 0.25
RTIN | ≤ 0.25

Variant | enrichment ratio
SCKM | ≤ 0.25
SPEN | ≤ 0.25
QVMH | ≤ 0.25
HHGQ | ≤ 0.25
HFHV | ≤ 0.25
YLWN | ≤ 0.25
FTWE | ≤ 0.25
GFNK | ≤ 0.25
YDWC | ≤ 0.25
TLTT | 6.25
QAGM | 4.7
EIPF | ≤ 0.25
FMWV | ≤ 0.25
YCIG | ≤ 0.25
SCWF | ≤ 0.25
LMQL | ≤ 0.25
SPDW | ≤ 0.25
HGMI | 1.04
TRKS | ≤ 0.25
KKMT | ≤ 0.25
IIDM | ≤ 0.25
IYVK | ≤ 0.25
IRNE | ≤ 0.25
HDME | ≤ 0.25

Variant | enrichment ratio
QNAT | ≤ 0.25
HFEI | ≤ 0.25
PLEV | ≤ 0.25
WYRD | ≤ 0.25
VSFN | ≤ 0.25
EGCQ | ≤ 0.25
YLCA | 0.507
QYFD | ≤ 0.25
NHNI | ≤ 0.25
DLDE | ≤ 0.25
IKFC | ≤ 0.25
VYEV | ≤ 0.25
QMLI | ≤ 0.25
VNEA | ≤ 0.25
RFEI | ≤ 0.25
FWYR | ≤ 0.25
GKGC | ≤ 0.25
SCPP | ≤ 0.25
THMW | ≤ 0.25
VLYE | ≤ 0.25
DCCW | ≤ 0.25
NFND | ≤ 0.25
GLPN | ≤ 0.25
MSNF | ≤ 0.25

Variant | enrichment ratio
KYFG | ≤ 0.25
RMAV | ≤ 0.25
DESM | ≤ 0.25
HDMR | ≤ 0.25
IPAG | ≤ 0.25
YDTY | ≤ 0.25
VYLC | ≤ 0.25
SLCM | 16.9
MWDP | ≤ 0.25
FAYQ | ≤ 0.25
DHYT | ≤ 0.25
KTFH | ≤ 0.25
PGFM | ≤ 0.25
ACYG | ≤ 0.25
IMGK | ≤ 0.25
FEFM | 1.67
YFKV | ≤ 0.25
WGSS | ≤ 0.25
HQHN | ≤ 0.25
YTDD | ≤ 0.25
NTNT | ≤ 0.25
YRDT | ≤ 0.25
KFQG | ≤ 0.25
NDPF | ≤ 0.25

Variant | enrichment ratio
LRYI | ≤ 0.25
IEGH | ≤ 0.25
PKVL | ≤ 0.25
ILCK | ≤ 0.25
PPHK | ≤ 0.25
TCFK | ≤ 0.25
MTWP | ≤ 0.25
GKNA | ≤ 0.25
AWGM | ≤ 0.25
NHPS | ≤ 0.25
YDMT | ≤ 0.25
VIRW | ≤ 0.25
LRTD | ≤ 0.25
HTQE | ≤ 0.25
RSQH | ≤ 0.25
WRLM | ≤ 0.25
SCVP | ≤ 0.25
ARHM | ≤ 0.25
PSFV | ≤ 0.25
SDFA | ≤ 0.25
ETHH | ≤ 0.25
GLFV | ≤ 0.25
PMAH | ≤ 0.25
PYAN | ≤ 0.25

Variant | enrichment ratio
ECPF | ≤ 0.25
GTFW | ≤ 0.25
GCPI | ≤ 0.25
DGFH | ≤ 0.25
QYIH | ≤ 0.25
PVQL | ≤ 0.25
PQVG | ≤ 0.25
SAWC | ≤ 0.25
KNHQ | ≤ 0.25
TYMI | ≤ 0.25
YQPP | ≤ 0.25
ISMR | ≤ 0.25
TQED | ≤ 0.25
WKDV | ≤ 0.25
GVGF | 12
KPDC | ≤ 0.25
MEIH | 0.72
PNAN | ≤ 0.25
KHQT | ≤ 0.25
NSCH | ≤ 0.25
PRYN | ≤ 0.25
WMLH | ≤ 0.25
LPAP | ≤ 0.25
PAGM | ≤ 0.25

Variant | enrichment ratio
YFIM | ≤ 0.25
YAWQ | ≤ 0.25
LELD | ≤ 0.25
PFAA | ≤ 0.25
PVYW | ≤ 0.25
NLGP | ≤ 0.25
VIWM | ≤ 0.25
NVVM | ≤ 0.25
HSHQ | ≤ 0.25
KRIL | ≤ 0.25
GGED | ≤ 0.25
GNHL | ≤ 0.25
KDVW | ≤ 0.25
GTTI | 13.5
KPVY | ≤ 0.25
IVRV | ≤ 0.25
QFLL | ≤ 0.25
VNMF | ≤ 0.25
LVST | ≤ 0.25
KREC | ≤ 0.25
KALC | ≤ 0.25
PPQR | ≤ 0.25
RKDP | ≤ 0.25
RLTQ | ≤ 0.25

Variant | enrichment ratio
SNAC | 10.5
VPQN | ≤ 0.25
VMLI | ≤ 0.25
HQAR | ≤ 0.25
GAII | 5.37
TSHT | 3.42
WIYQ | ≤ 0.25
NHPW | ≤ 0.25
IVWN | ≤ 0.25
SQFF | 1.49
WIHM | ≤ 0.25
AAQF | ≤ 0.25
LRRI | ≤ 0.25
VRKR | ≤ 0.25
PSWY | ≤ 0.25
AQNS | 2.79
SFAW | ≤ 0.25
WTPG | ≤ 0.25
GVIS | ≤ 0.25
QQFE | ≤ 0.25
YGWG | ≤ 0.25
TIEY | 1.14
KAQG | ≤ 0.25
RSPF | ≤ 0.25

Variant | enrichment ratio
KLQM | ≤ 0.25
QRFG | ≤ 0.25
PARW | ≤ 0.25
SNIR | ≤ 0.25
RVVH | ≤ 0.25
SLHQ | ≤ 0.25
ECMR | ≤ 0.25
MMTL | 13.2
PSLI | ≤ 0.25
HVPD | ≤ 0.25
FAVT | ≤ 0.25
YMKL | ≤ 0.25
TRCK | ≤ 0.25
VYWE | ≤ 0.25
RAMQ | ≤ 0.25
IKFP | ≤ 0.25
EIWF | ≤ 0.25
DTAR | ≤ 0.25
PAYW | ≤ 0.25
LQHK | ≤ 0.25
TAPP | ≤ 0.25
SWHT | ≤ 0.25
KGAF | ≤ 0.25
EFHD | ≤ 0.25

Variant | enrichment ratio
PNVY | ≤ 0.25
IRII | ≤ 0.25
GAFS | ≤ 0.25
YTYE | ≤ 0.25
LRDV | ≤ 0.25
HRWT | ≤ 0.25
VAWT | ≤ 0.25
LEPM | ≤ 0.25
VKEL | ≤ 0.25
KGFK | ≤ 0.25
GKGK | ≤ 0.25
MHGI | ≤ 0.25
TRKE | ≤ 0.25
QHTF | ≤ 0.25
MDAV | 1.54
GHVL | ≤ 0.25
CLYK | ≤ 0.25
WMFK | ≤ 0.25
IVVN | ≤ 0.25
GIAP | ≤ 0.25
NEDC | ≤ 0.25
ESQQ | ≤ 0.25
TVIP | ≤ 0.25
TNPM | ≤ 0.25

Variant | enrichment ratio
DPLN | ≤ 0.25
PPMT | ≤ 0.25
MIRQ | ≤ 0.25
NRWR | ≤ 0.25
EFNT | ≤ 0.25
AQER | ≤ 0.25
TWEN | ≤ 0.25
DSTI | ≤ 0.25
LDCY | ≤ 0.25
WNRL | ≤ 0.25
FKCF | ≤ 0.25
HVLF | ≤ 0.25
YEQK | ≤ 0.25
MKTW | ≤ 0.25
LGLQ | ≤ 0.25
HVHK | ≤ 0.25
ACQS | 6.63
KHLF | ≤ 0.25
GHSI | ≤ 0.25
GTKE | ≤ 0.25
MFHW | ≤ 0.25
IWWC | ≤ 0.25
GAPS | ≤ 0.25
AHRC | ≤ 0.25

Variant | enrichment ratio
AWPF | ≤ 0.25
FTQC | ≤ 0.25
PAPH | ≤ 0.25
HFAA | ≤ 0.25
LCKR | ≤ 0.25
LVKR | ≤ 0.25
YYFI | ≤ 0.25
CVFT | ≤ 0.25
PNNA | ≤ 0.25
GGRY | ≤ 0.25
RGKY | ≤ 0.25
KTKR | ≤ 0.25
YPLR | ≤ 0.25
WDTW | ≤ 0.25
AFWF | ≤ 0.25
RVDS | ≤ 0.25
EVQD | ≤ 0.25
RNLW | 0.862

Reference: a collection of fitness landscapes (doi:10.1126/science.1257360)
